# Screen size: about 48,000 compounds; about 450 (0.94%) were called active. Another 19% or so got no clear call; they are omitted. Calls come from the whole dose curve; as a rule, active = well fitted inhibition curve with a large enough effect; inconclusive = small, poorly fitted or top-dose-only effect; inactive = no such curve, though single readings can be large or run the other way. This is one part of the list.
# Experiment: Primary qHTS for Identification of Small Molecule Inhibitors of Huntingtin Promoter Activity; note: nearly all actives have a fitted effect of over 50% in size
# Conditions: HEK293 HTT promoter firefly luciferase reporter (activity 0% = vehicle and -100% = no light), 24 h; activity change, negative = inhibition: at the top concentration
# Outline: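 Firefly luciferase signal from promoter-reporter HEK293 cells was scaled between vehicle (0%) and zero RLU (-100%). Compounds were tested at final concentrations of up to 57.5 uM over 24 h at 37 degrees C. PTC124 at 50 uM final served as control inhibitor.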
row,SMILES,"activity change, negative = inhibition"
1,C[N+]1(CCC(C(N)=O)(c2ccccc2)c2ccccc2)CCCCC1,inactive: -4.45%
2,O=C(O)COc1nc(Cl)c(Cl)cc1Cl,inactive: 9.95% [at 116 µM]
3,C#C[C@]1(O)CC[C@H]2[C@@H]3CCC4=CC(=O)CC[C@]4(C)[C@H]3CC[C@@]21C,inactive: -9.29%
4,C[C@H]1[C@@H]2Cc3ccc(O)cc3[C@@]1(C)CCN2C,inactive: 0.662% [at 288 µM]
5,C[C@]12COC(=O)C[C@@H]1CC[C@@H]1[C@H]2CC[C@@]2(C)[C@H]1CC[C@]2(C)O,inactive: -10.7%
6,COP(=S)(OC)Oc1ccc(SC)c(C)c1,inactive: 1.04%
7,O=c1[nH]c2ccccc2n1CCCN1CCC(n2c(=O)[nH]c3cc(Cl)ccc32)CC1,inactive
8,CCN(CC)C(=O)c1ccc(NC(=O)Cn2nc(-c3ccc(C)cc3)c3ccccc3c2=O)cc1,inactive: -10.6%
9,O=[N+]([O-])c1c(Cl)c(Cl)cc(Cl)c1Cl,inactive: 8.7% [at 116 µM]
10,Cc1ccc(N=CN(C)C=Nc2ccc(C)cc2C)c(C)c1,inactive: -1.02%
11,CC(C)CC(N(C)C)C1(c2ccc(Cl)cc2)CCC1 (stereo not given),inactive
12,COc1ccc(C(=O)N2CCCC2=O)cc1,inactive
13,Cc1cccc(Cn2cccc(C(=O)Nc3cc(C)on3)c2=O)c1,inactive: -9.72%
14,COc1ccc(OC)c(CC(C)N)c1 (stereo not given),inactive: -4.17% [at 116 µM]
15,CN1C(=S)CN=C(c2ccccc2)c2cc(Cl)ccc21,inactive: -6.13%
16,CCCCOC(=O)c1ccccc1C(=O)OCc1ccccc1,inactive: 20.2% [at 116 µM]
17,CC[C@@H](C(N)=O)N1CCCC1=O,inactive: -24.4%
18,c1cc2c(cc1[C@H]1OC[C@H]3[C@H]1CO[C@H]3c1ccc3c(c1)OCO3)OCO2,inactive: -19.6%
19,O=C(O)CCCc1ccc(N(CCCl)CCCl)cc1,inactive
20,CC1=C2C[C@@H]3[C@@H](CC=C4C[C@@H](O)CC[C@@]43C)[C@@H]2CC[C@]12O[C@H]1C[C@H](C)CN[C@H]1[C@H]2C,inactive: 9.26%
21,COc1cccc(C(=O)CCN[C@@H](C)[C@H](O)c2ccccc2)c1,inactive: 7.06%
22,C#CCOC(C(=O)OCCN(C)C)(c1ccccc1)c1ccccc1,inactive: 4.73%
23,O=C1c2ccccc2C(=O)C1C(=O)C(c1ccccc1)c1ccccc1,inactive: -2.1%

row,SMILES,"activity change, negative = inhibition"
1,COc1ccc(-c2nc(CN3C(=O)CN=C(c4ccccc4)c4ccccc43)c(C)o2)cc1,inactive: -14.1%
2,Nc1ccncc1,inactive: 1.35%
3,C[N+]1(CCF)[C@@H]2CC[C@H]1CC(OC(=O)C(O)(c1ccccc1)c1ccccc1)C2 (stereo not given in full),inactive: -6.21%
4,NC1(c2ccccc2)CCCCC1,inactive: -12% [at 116 µM]
5,C[C@]12CC[C@@H]3[C@@H](CCC4=CC(=O)CC[C@@H]43)[C@@H]1CC[C@@H]2OC(=O)CCc1ccccc1,inactive: 2.96%
6,CCOC(=O)NC(C)(C)Cc1ccc(Cl)cc1,inactive: -2.55%
7,CC(C)c1ccc(OCC(=O)N2CCN(CCc3ccncc3)CC2)cc1,inactive: 20.5%
8,CCOc1ccc(CN(CCc2ccc3c(c2)OCO3)Cc2cc(OC)ccc2O)cc1,inactive: 43.9%
9,Cc1c(C(=O)Nc2cccc(C(F)(F)F)c2)cc(-c2ccccc2)n1CCCN1CCOCC1,inactive: 1.56%
10,Cc1cc(OCC(=O)N2CCN(CCc3ccncc3)CC2)ccc1Cl,inactive: -12.5%
11,CSc1ccc(/C=C/c2nc3ccccc3c(=O)n2-c2cccc(Cl)c2C)cc1,inactive: -27.1%
12,O=C(O)c1cc(Oc2ccc(C(F)(F)F)cc2Cl)ccc1[N+](=O)[O-],inactive: 7.75%
13,Cc1ncc2n1-c1ccc(Cl)cc1C(c1ccccc1F)=NC2,inactive: 12.5%
14,Cc1ccc(NC(=O)N(Cc2ccc3c(c2)OCO3)C2CCN(Cc3ccccc3)CC2)cc1C,inactive: -28.8%
15,Nc1ccc(Sc2ccc(N)cc2)cc1,inactive: 5.03% [at 116 µM]
16,CCC(=O)OC1(c2ccccc2)CCN(C)CC1,inactive: 0.98% [at 116 µM]
17,COc1ccc(OC)c(C(c2c(O)c3ccccc3oc2=O)c2c(C)n(C)n(-c3ccccc3)c2=O)c1 (stereo not given),inactive: 0.0859%
18,Cc1ccc2c(c1)C1CN(C)CCC1N2 (stereo not given),inactive: 4.39% [at 25.2 µM]
19,CC(C)(O)C(=O)Nc1ccc([N+](=O)[O-])c(C(F)(F)F)c1,inactive: -13.9%
20,CNC(=O)NC(O)C(Cl)(Cl)Cl (stereo not given),inactive: 1.24%
21,O=C(O)CNC(=O)c1c(O)c2ccccc2n(Cc2ccccc2)c1=O,inactive: 2.97%
22,Cc1ccc(OCC(=O)Nc2ccc(Cl)cc2C(=O)c2ccccc2)cc1,inactive: 1%
23,O=S1(=O)N(Cc2ccccc2)CCCN1Cc1ccc(F)cc1Cl,inactive: -0.87%

row,SMILES,"activity change, negative = inhibition"
1,Cc1c(C(=O)c2cccc3ccccc23)c2cccc3c2n1[C@H](CN1CCOCC1)CO3,inactive: -26.6%
2,CC1Sc2c(C(=O)O)c(=O)c3cc(F)c(N4CCNCC4)cc3n21 (stereo not given),inactive: 12.7%
3,O=c1oc2ccccc2c(O)c1C(CC(O)c1ccc(-c2ccc(Br)cc2)cc1)c1ccccc1 (stereo not given),inactive: -9.42%
4,O=C(Nc1ccc(Br)cc1C(=O)c1ccccc1)c1ccccc1,inactive: -0.793%
5,CCCOC(=O)Cc1ccc(OCC(=O)N(CC)CC)c(OC)c1,inactive: -9.52%
6,CC(CCc1ccccc1)NC(C)C(O)c1ccc(O)cc1 (stereo not given),inactive: -11.7%
7,OCCCBr,inactive: 11.6% [at 116 µM]
8,C[C@]12CC[C@H]3[C@@H](CCC4=CC(=O)CC[C@@H]43)[C@@H]1CC[C@@H]2OC(=O)CCc1ccccc1,inactive: 2.33%
9,O=C1NCN(c2ccccc2)C12CCN(CC1COc3ccccc3O1)CC2 (stereo not given),inactive: -4.06%
10,CC(C)(N)Cc1ccccc1Cl,inactive: -6.83%
11,c1ccc2nc(N3CCNCC3)ccc2c1,inactive: 1.79%
12,Oc1c(Br)cc(Br)cc1Br,inactive: 18.3%
13,CCNC(=O)C[C@@H]1N=C(c2ccc(Cl)cc2)c2cc(OC)ccc2-n2c(C)nnc21,inactive: -4.71%
14,COc1ccc(OCC(=O)N2CCN(Cc3cccc(OC)c3OC)CC2)cc1,inactive: -29.6%
15,NNc1ccccc1,inactive: -16.3%
16,Clc1cccc(N2CCNCC2)c1,inactive: -8.08%
17,CCCN(CCC)C(=O)Cc1c(-c2ccc(Cl)cc2)nc2ccc(Cl)cn12,inactive: -3.54%
18,CCCOC(=O)c1cncn1C(C)c1ccccc1 (stereo not given),inactive: 3.13%
19,CC[C@@]1(O)C(=O)OCc2c1cc1n(c2=O)Cc2cc3ccccc3nc2-1,inactive: -26.9%
20,CN(C)CCc1c[nH]c2ccc(O)cc12,inactive: -1.9% [at 116 µM]
21,CCCC[N+]1(C)[C@@H]2CC(OC(=O)[C@H](CO)c3ccccc3)C[C@H]1[C@@H]1O[C@@H]12 (stereo not given in full),inactive: -1.3%
22,Cc1cccc2sc(NC(=O)c3cccn(Cc4ccccc4)c3=O)nc12,inactive: 0%
23,Cc1cc(NC(=O)c2cccn(Cc3ccccc3)c2=O)no1,inactive: 22.2%

row,SMILES,"activity change, negative = inhibition"
1,O=C(CN1C(=O)CN=C(c2ccccc2)c2ccccc21)Nc1cccc(C(F)(F)F)c1,inactive: -18.5%
2,CC(C)(C)NCC(O)c1cc(Cl)c(N)c(C(F)(F)F)c1 (stereo not given),inactive: 2.09%
3,CC(C)=CC1C(C(=O)OCN2C(=O)C3=C(CCCC3)C2=O)C1(C)C (stereo not given),inactive: -10%
4,Cc1ncc(CNC(=O)N(CCCl)N=O)c(N)n1,inactive: -8.89%
5,COc1cc(C[C@@H](C)N)c(OC)cc1C,inactive: -4.53% [at 116 µM]
6,CC(C)(O)C(Cl)(Cl)Cl,inactive: -1.95%
7,CCOc1ccc(CN(CCc2ccc3c(c2)OCO3)Cc2cccc(C)c2)cc1,inactive: -29.3%
8,Cc1cc(OCC(=O)N2CCN(CCc3ccccn3)CC2)cc(C)c1Cl,inactive: -13.2%
9,Oc1cccc2cccnc12,inactive
10,COc1cc(CC(C)N)cc(OC)c1OC (stereo not given),inactive: -2.86% [at 116 µM]
11,Cc1ccc(Cl)c(O)c1,inactive: 3.06%
12,COc1ccc2[nH]cc(CCN(C(C)C)C(C)C)c2c1,inactive: 3.35% [at 116 µM]
13,CN1C[C@@H](NS(=O)(=O)N(C)C)C[C@@H]2c3cccc4c3c(cn4C)C[C@H]21,inactive: 4.12%
14,Cc1cccc(C2CC(=O)Oc3c2c(=O)oc2ccccc32)c1 (stereo not given),inactive: 9.77%
15,COc1ccc(CN2CCN(C(=O)COc3ccccc3)CC2)c(OC)c1,inactive: -26.8%
16,Oc1ccc2c3c1O[C@H]1c4[nH]c5c(c4C[C@@]4(O)[C@@H](C2)N(CC2CC2)CC[C@]314)C[C@@]1(O)[C@H]2Cc3ccc(O)c4c3[C@@]1(CCN2CC1CC1)[C@H]5O4,inactive: 5.17%
17,CCC1(c2ccccc2)CCC(=O)NC1=O (stereo not given),inactive: -5.88%
18,c1cc2ccc3cccc4ccc(c1)c2c34,inactive: -2.38% [at 116 µM]
19,COc1ccc2c3c1O[C@H]1[C@@H](O)C=C[C@H]4[C@@H](C2)N(C)CC[C@@]341,inactive: -25.6% [at 116 µM]
20,CCCCC(CC)COC(=O)c1ccccc1C(=O)OCC(CC)CCCC (stereo not given),inactive: 18.4% [at 116 µM]
21,Oc1ccc(Cl)cc1Cc1ccccc1,inactive

# From PubChem BioAssay AID1508623 (National Center for Advancing Translational Sciences (NCATS), 2021)
